The supplement of paper PMC10126150
Sequences with one replicate were seen in a single cluster, so their values are uncertain.

System: ATP
Experiment: switch fluorescence ratio, 500 uM ATP over buffer (Cy3 cluster intensity, sum of 5 cycles each) (fold (ratio)); higher = stronger signal-on switching upon ATP binding; sequences stand for … in TCGTCGGCAGCGTCAGATGTGTATAAGAGACAGTTTTTTTTTTTTTTTTTTTTTTTTT…TC
Settings: aptamer strand: ATP DNA aptamer (quencher-CACCTGGGGGAGTATTGCGGAGGAAGG + anchor), 100 nM annealed; ATP concentration: 500 uM; one replicate
Summary of the method: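 After annealing to 100 nM quencher-labelled ATP aptamer, Cy3-labelled switching-strand clusters on a modified Illumina MiSeq flow-cell were imaged in selection buffer. A second image followed after 15 min with 500 uM ATP at 22 °C, and five such buffer/ATP cycles were done, each separated by NaOH stripping and re-annealing. The fluorescence ratio, averaged per switch-domain sequence, is summed target-cycle over summed buffer-cycle Cy3 intensity per cluster, with clusters outside 100-1000 RFU excluded.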
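Further: ATP exposure 15 min at 22 °C before imaging.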

Sequence	switch fluorescence ratio
GTAATTCGTA	0.981
ATAGCGGGGT	0.96
TTTTGCTAG	0.984
AATACTGCTT	0.987
CAGTTGTCTT	0.967
GCATCTACTA	1.03
GCATGGAATC	1.05
CCGGTTAAGA	1.02
CGGACTACAC	1.3
GCACGTCTTG	1.15
GTGTAATGCG	0.968
GCTAATTCCA	1
TTTGGCGTAG	0.982
CCATGCTTTG	1
ACCAGAGCGA	1.24
GGTAGCGGCT	1.06
GTATATTTGC	0.984
TGATATGACG	0.982
AGCAAAGAGA	0.998
TACTAGTTCA	0.99
TGTTCCACAT	1.01
GCAGGCAATC	2.64
GTAAAGAGTA	1.01
ACGCCAAATT	1.03
AAACAAAATA	1.06

Sequence	switch fluorescence ratio
CTCTGAGACG	1
TTGCTTCGAC	1.02
GTTTATGGAT	1.02
AGTTTTACGA	1.04
GATCATAAGA	1.05
TATAAATCAG	1.07
GTTGCGGGCC	0.918
ATGCAGGGAG	1.03
CATAGACCTT	1.21
CAGCGGGGCT	1.01
GAGCGTTTCG	1.03
AACTGTTGCT	1.01
GCTAAAATAA	1
CCGTTCTCAG	1.17
AGGTAATACC	1.03
ATCGCCCATA	1.02
TCGGTAGATA	1.02
GAAAATTGAA	0.982
GAGAATCAC	0.996
TAAAGCTAAT	1.03
ATTTTGATTG	0.957
CAACCCTGAG	1.05
ATCGATAGGG	1.01
CGAGTATGC	1.12
AATCTTGACG	1.01

Sequence	switch fluorescence ratio
ATATTTTATA	1.01
TATTTACGCA	1.13
GGGCGAAAAC	1.04
CGGGGAGATG	0.998
ACTCATCCTC	1.13
GTATACATAC	1.12
GGAATCAGTT	0.997
GTGAGCTATC	1.06
TCCGATGGGA	0.978
CATTCCTATT	0.991
ATATACCGGC	0.988
GAGACTAATG	0.955
GTGGTTGTGT	0.983
TTCGTGGAAA	1.04
GGTTCCATGT	0.989
TGGCCTTTGG	0.978
GTGTAGAGGA	0.96
GTTACTTTCG	1.05
CTCGTATTTT	1.03
GAAGTCTAA	1.09
CTGGGCTAAC	1.39
TGGTATCAGG	1.05
GGTCAGTGCA	0.991
CTGGGAGTGA	1.05
TGTCTTCGC	0.965

Sequence	switch fluorescence ratio
GCACCTGGGG	1.01
AGTTAGGCAC	1.01
ACGACGGACC	1.77
TCTTTGGGAA	2.16
TTCAAAAGGT	0.993
GGACTTGGCC	0.999
CTAGTTTGAA	0.988
AGTAGAACCA	1.04
TAGTGCTGAA	0.986
GAGTTTATAC	1.01
GAAAATGCTG	0.956
TTCAACGGGT	1.02
TGCATGACTC	1.76
CATGCTGTTA	1.03
TGAGTCTTGA	1.03
GAGCTCCTAT	1.02
GGGAGCTGGG	0.975
CCTTTAGTAG	1.03
TAGAGGACGG	0.995
GCTAACTATG	1.03
AGCGCCTGAC	1.19
GTTGGTTTGC	1.02
TTGGGAGAAC	0.978
ATACTTTACA	1.25
TCAATATTTA	0.982

Sequence	switch fluorescence ratio
CTTTGGTGGA	1.02
TAATGGCTTT	1.05
ACTACAATA	1.09
ACTGGGGCTG	1
ATTTACTGGA	0.969
AAAAGTGCC	1.07
TAATTATAGG	0.998
CTGGAGTTAC	2.8
CTTTCTTCCC	1.13
TCGGTCAGGT	1.01
AGTTCCATTA	0.988
GCAGCGGTCG	1.08
CAATTTGTTC	1.01
TCCAAATTTA	0.951
GTCATGCTAT	0.992
ACGAGGGACA	1.05
ATGGAACGA	0.932
TGTAAGTAGT	1.02
TGAGCTTTCC	1.13
CGGTTGGCAG	1.02
AAGCATAAAG	1.06
GCAGGGTGCC	0.994
TGGCTTGAAA	1.07
TACAAACGTT	1.15
ATGTTGTGTC	0.907

Sequence	switch fluorescence ratio
ATCAACGGTT	0.984
AAAAAGCAC	1.08
GAAAGGACCG	1.14
TATAATGATG	0.992
AATACATGTG	0.999
CATAGGGTAG	0.975
ACCTATGGGC	0.99
GCCAACGTCA	1.04
CCAATGCCT	1.04
GCGTTGGTAC	1.19
CTTTAAGAGG	1.03
TTACGAATAG	1.02
AAGGCCGTTC	1.02
AACCCGCCTG	0.974
AACTTAAGT	0.987
GATTTAGTGG	1
AAAGTTCTGA	1.01
GCAGTGTGGG	1.01
AGTTAAAAGA	1.01
GAGCTGTTAA	0.998
AAGAGAAGGA	0.949
CGAAAATGCG	0.999
GACAACGCTT	1.65
CGCCTGTTTG	0.989
ATCATTTTGA	0.967

Sequence	switch fluorescence ratio
CAGATGTGTA	1.01
ACGGATGACC	1.04
GAATGTTTGT	0.981
AAGCATGGAG	1
CGGCCTGCCG	1.03
AGATCGCACT	1.06
GCCCGCCCGA	1.16
AAGTTCTGTG	1.06
GAGGACCA	1.04
GTGAACGATT	1.01
CATTTTGCTC	1.05
TGGCGGTTCC	0.976
AAGAACGGCC	1.13
ATTCGGATAT	0.996
TATGCGGCCC	0.995
ATCGCGTCGA	1.02
GTTTGGATGG	0.943
TACCTGCGCG	1.04
GACAGCCTCT	1.08
CAAGAGCCCG	1.04
GATCACGGTG	1.02
ACAGTGTAGA	1.03
ACTTTGTAG	1.05
GCACCCCCAG	5.24
GCGTTGTTCT	0.979

Sequence	switch fluorescence ratio
AGTATCCAGT	0.922
CAACGTATCT	1.13
TTGCACATAT	1.04
GGGTTAAAA	1.02
AGGAAGGAAT	1.02
GCGGTCAATG	0.961
GTCGGGGAAA	0.996
GTAGACGATA	1.01
CTAGATGGTG	1.03
ATGTACGC	1.04
TGCTCTTAAT	1.01
GGTGGCTCTT	0.986
CACTTAAGAT	0.988
TAAAATGGTA	1.06
CGGTTCGTTT	0.969
AGAAGGCGGA	0.968
CCCAACCGAG	1.32
GTCTTTCGTT	1.03
TCTACCTTGT	1.03
ACTATGCACT	1.11
CGGTAGGTAC	1.07
ATATCAGTCA	0.963
TTAACATTAG	0.976
TTAGTTCTAT	0.961
GCTCGCTTGC	1.54
